Reference: PubChem BioAssay AID1745853 (National Center for Advancing Translational Sciences (NCATS), 2022)
Where “and” joins values, the source holds several entries; their conditions need not be identical. Identical values can stand only once. The list shows a part of the results. Further columns of the screen follow, without active or inactive calls.

Experiments:
Assay in all cases: Primary Screen for Target Class Profiling of Small Molecule Inhibitors of Methyltransferases
[1] = molecular target: Glycine N-methyltransferase (Homo sapiens) (UniProt Q14749); conditions: purified enzyme, MTase-Glo SAH luminescence; measured here: GNMT inhibition; at 40 µM; stronger effect = lower value
How it was run: (§1)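 Each enzyme was assayed with SAM and its substrate. SAH formation detected by MTase-Glo luminescence; single-point 40 uM screen[…].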

[2] = molecular target: Guanidinoacetate N-methyltransferase (Homo sapiens) (UniProt Q14353); conditions: purified enzyme, MTase-Glo SAH luminescence; measured here: GAMT inhibition; at 40 µM; stronger effect = lower value
How it was run: as §1

[3] = molecular target: Histamine N-methyltransferase (Homo sapiens) (UniProt P50135); conditions: purified enzyme, MTase-Glo SAH luminescence; measured here: HNMT inhibition; at 40 µM; stronger effect = lower value
How it was run: as §1

[4] = molecular target: Nicotinamide N-methyltransferase (Homo sapiens) (UniProt P40261); conditions: purified enzyme, MTase-Glo SAH luminescence; measured here: NNMT inhibition; at 40 µM; stronger effect = lower value
How it was run: as §1

[5] = molecular target: Phenylethanolamine N-methyltransferase (Homo sapiens) (UniProt P11086); conditions: purified enzyme, MTase-Glo SAH luminescence; measured here: PNMT inhibition; at 40 µM; stronger effect = lower value
How it was run: as §1
% is scaled to controls: 0 for no effect and ±100 for the full control effect.

SMILES	activity change, negative = inhibition [1]	activity change, negative = inhibition [2]	activity change, negative = inhibition [3]	activity change, negative = inhibition [4]	activity change, negative = inhibition [5]
CCc1cc2c(cc3n2CC(C)(C(=O)NC2CCC(C)CC2)N(Cc2ccccc2F)C3=O)s1 (stereo not given)	-5.58%	3.31%	-3.74%	-3.43%	-4.47%
C[C@@]12C(=O)N(c3ccc(C(=O)Nc4cccc5cccnc45)cc3)C(=O)[C@@H]1[C@@H]1C=C[C@H]2C1	-1.01%	6.27%	5.11%	-9.7%	-0.874%
O=C(NC1CCN(c2cc(N3CCOCC3)cnn2)C1)C1CC1 (stereo not given)	-7.78%	-5.99%	-5.38%	-5.86%	-3.77%
COc1ccc(C(=O)N2C(C(=O)N3CCCC3)COC23CCN(C(=O)C2CCC2)CC3)cc1 (stereo not given)	-4.61%	-5.9%	-3.38%	-6.89%	-2.53%
Cc1cnc(Nc2ccc(OCCN3CCCC3)cc2)nc1Nc1cccc(S(=O)(=O)NC(C)(C)C)c1	-22.3% and -17.5%	9.26%	-52.2% and -44.2%	-34% and -24.3%	-5.52% and 24.7%
CC(C)CCn1c(=O)c2ccccc2n2c(SCc3ccccc3F)nnc12	-5.51%	0%	7.88%	-14.2%	3.2%
COc1ccccc1CNC(=O)C1(C)Cn2c(cc3ccccc32)C(=O)N1C1CC1 (stereo not given)	3.27%	0.013%	2.74%	8.76%	-0.108%
Cc1c2cc(c(C(=O)O)c1C)OC1OC(C(O)C(O)C1O)C(O)C(O)C1OC(O2)C(O)C(O)C1O (stereo not given)	-0.511%	-16.6%	-0.914%	-32%	-0.995%
CCn1c(CO)nnc1C1CC(NC(=O)c2nn(C)c(C)c2Cl)C1 (stereo not given)	-1.25%	-2.47%	-0.161%	-4.48%	0.189%
CC(C)c1ccc(CNC(=O)c2ccc3c(=O)nc4c(-c5cccc(F)c5)n[nH]n4c3c2)cc1	-3.86%	-1.49%	1.33%	-3.89%	-3.65%
O=C(CCn1ccc2cc(S(=O)(=O)N3CCCC3)ccc21)NCc1ccccc1F	4.21%	0%	5%	4.38%	3.51%
COc1ccccc1CNC(=O)C1(C)Cn2nc(-c3ccccc3)cc2C(=O)N1c1cccc(Cl)c1 (stereo not given)	2.9%	1.59%	7.3%	6.19%	1.49%
CC(=O)Nc1ccc(Nc2nc3c(S(=O)(=O)c4ccc(Cl)cc4)nnn3c3ccccc23)cc1	-10.7%	-0.086%	-2.94%	-9.96%	-8.35%
COc1cccc(CN2CCCC3(CCN(c4cc(C)nc(N)n4)C3)C2)c1OC (stereo not given)	-9.36%	-15.3%	-55.7%	-12.3%	-4.15%
Cc1ccc(CSc2nnc3n(C)c(=O)c4ccc(C(=O)NC5CCCC5)cc4n23)cc1	-3%	0%	9.89%	5.95%	5.07%
COC(=O)c1ccc2c(c1)nc1n2[C@@H](CNC(=O)CC(C)(C)C)COC1	-5.32%	-3.3%	-2.85%	-13.4%	-21.8%
COc1ccc(CCc2nc3c(C)c(-c4c(C)noc4C)c(C)cc3n2CCN2CCOCC2)cc1	-18.5%	-10.8%	-3.79%	-62%	-7.37%
Cc1cc2c(cc1S(=O)(=O)NCc1ccccc1)n(C)c(=O)n2C	-3.59%	2.9%	-7.35%	-10.3%	-4.37%
O=C(O)CC(CCc1ccccc1)OC1OC(CO)C(O)C(O)C1O (stereo not given)	2.58%	1.79%	8.48%	-7.54%	2.46%
Cc1ccc(CSc2nnc3n(CC(C)C)c(=O)c4ccc(C(=O)NC(C)C)cc4n23)cc1	-1.14%	-4.54%	10.6%	-3.79%	0.557%

SMILES	activity change, negative = inhibition [1]	activity change, negative = inhibition [2]	activity change, negative = inhibition [3]	activity change, negative = inhibition [4]	activity change, negative = inhibition [5]
COc1ccc(OC)c(-c2nnc3n(Cc4ccc(F)cc4)c(=O)c4ccccc4n23)c1	-6.94%	4.64%	-2.41%	0.215%	-2.9%
O=C(O)[C@H](Cc1ccccc1)Oc1ccc(-c2ccccc2)cc1	-17.8%	-5.08%	10.1%	-23.5%	-0.922%
CCN1C(=O)c2ccccc2C1Nc1ccc(OCCN2CCCCC2)cc1 (stereo not given)	3.27%	5.2%	-61.1%	-8.81%	5.89%
O=C(Cn1c(=O)oc2cc(S(=O)(=O)N3CCCC3)ccc21)NC1CCN(Cc2ccccc2)CC1	13.4%	0%	4.25%	7.2%	2.13%
CC(C)NC(=O)c1ccc2c(=O)n(Cc3ccccc3)c3nn(Cc4ccc(Cl)cc4)c(=O)n3c2c1	5.71%	6.47%	7.51%	2.23%	2.43%
CC(=O)N1c2ccc(S(=O)(=O)N(C)CC(=O)N3CCN(c4cc(C)ccc4C)CC3)cc2CC1C (stereo not given)	4.89%	1.17%	6.76%	-3.49%	4.58%
CC[C@H](C(=O)Nc1ccccc1N1CCCC1)c1ccccc1	2.63%	-2.95%	-4.77%	-6.56%	-8.98%
COc1ccc(-c2n[nH]n3c2nc(=O)c2ccc(C(=O)NC(C)c4ccccc4)cc23)cc1 (stereo not given)	-6.8%	0.214%	1.63%	-2.08%	-4.06%
CC(C)c1cccc2c(-c3ccccc3)cc(-c3ccc(-c4ccc(C(=O)O)cc4)[nH]3)nc12	-12.8%	-22.9%	4.03%	-83%	-8.8%
CC(C)OCCCNC(=O)CCc1nnc2n(Cc3ccccc3Cl)c(=O)c3ccccc3n12	-2.81%	0.361%	10.7%	10.9%	2.2%
NC(=O)c1ccc2c(c1)C1C=CCC1C(c1ccc(Cl)cc1)N2 (stereo not given)	-26.2%	0.016%	-15.8%	-18.1%	-18.3%
O=C(Cn1ccc2cc(S(=O)(=O)N3CCCC3)ccc21)NCCc1cccs1	1.6%	4.72%	6.82%	0.33%	-1.85%
CCOC(=O)c1cc2n(n1)CC(C)(C(=O)NCCC(C)C)N(c1ccc(C)cc1)C2=O (stereo not given)	4.25%	0%	7.86%	7.95%	0.525%
Cc1noc(-c2ccco2)c1C(=O)NCc1cccc(Cl)c1	-7.13%	-1.86%	-3.26%	-8.81%	12.1%
COc1cccc(S(=O)(=O)N2CCC(OCCOc3ccccc3)CC2)c1	4.4%	2.66%	16.6%	5.05%	1.64%
Cc1ccc(CNC(=O)C2(C)Cn3nc(C(=O)NCCC4=CCCCC4)cc3C(=O)N2C)cc1 (stereo not given)	3.23%	0.867%	3.81%	5.65%	3.8%
CC1=C2C(O)C(=O)OC(c3ccoc3)C2(C)CCC1O (stereo not given)	-0.18%	1.62%	3.75%	-11.8%	2.34%
Clc1cccc(Cl)c1NC1=NCCN1	3.94%	14.3%	12.4%	-3.12%	7.7%
CC(CN)(c1ccccn1)N1CCOCC1 (stereo not given)	-3.99%	-5.32%	-16.4%	-7.82%	-2.55%
